Laboratory results from PubChem BioAssay AID2546 (National Center for Advancing Translational Sciences (NCATS), 2010).
Hit rate of the full screen: of about 310,000 compounds, about 11,000 (3.5%) were called active. Inconclusive results, whose numbers are uncertain, are shown with a selection of clear calls. Calls come from the whole dose curve; as a rule, active = well fitted inhibition curve with a large enough effect; inconclusive = small, poorly fitted or top-dose-only effect, or effect the other way; inactive = flat fitted curve, though single readings scatter. No potency is given beside an inconclusive call; the fits are too rough.

Test: VP16 counterscreen qHTS for inhibitors of ROR gamma transcriptional activity;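 note: Gal4-VP16 expression switched on by copper sulfate through the metallothionein promoter; nearly all actives have a fitted effect of over 50% in size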
Conditions: Drosophila S2 Gal4-VP16 UAS-luciferase, luminescence, 20 h; series mostly up to 53.6 µM
Potency is the fitted concentration of half-maximal effect; tags give direction and shape of the fitted curve.

Structure (SMILES) | Potency
O=C(O)c1csc(N/N=C/c2ccc(Br)cc2)n1 | active: 5.01 µM
Cc1cc(CSc2ccccc2)ccc1NC(=O)c1ccc(CN2CCOCC2)cc1 | inconclusive [inhibitor, full curve]
COc1cccc(/C=N/NC(=O)C(C)n2nc(C)c([N+](=O)[O-])c2C)c1O (stereo not drawn) | active: 0.0398 µM
CCn1c(SCC(=O)N2CCN(c3ccccc3)CC2)nnc1-c1c[nH]c2ccccc12 | inconclusive [inhibitor, single point]
CCCc1ccc(Oc2coc3cc(OCC(=O)Nc4ccccc4C)ccc3c2=O)cc1 | inconclusive [inhibitor, partial curve]
COc1ccc(-c2nnc3n2N=C(c2ccccc2OC)CS3)c(OC)c1 | inactive
COC(=O)c1ccc(CSc2nc(C)nc3sc(C)c(C)c23)o1 | active: 3.98 µM
CSS(=O)(=O)c1cccc2cccnc12 | inconclusive [inhibitor, single point]
Cc1csc(NC(=O)CCc2c(C)nc3cc(-c4ccc(Cl)cc4)nn3c2C)n1 | inconclusive [inhibitor, single point]
CCc1ccc(NC(=O)CSc2ccc(-c3ccccn3)nn2)cc1 | inconclusive [inhibitor, partial curve]
CCOc1ccc(NC(=O)CN2CCN(CC(=O)c3ccc(OCC)cc3)CC2)cc1 | inconclusive [inhibitor, single point]
Cc1ccc2c(c1)N=C(c1ccc(F)cc1)CO2 | inconclusive [inhibitor, single point]
O=C(NCc1ccc(F)cc1)c1cccnc1C(=O)O | inactive
O=C(NC(=S)NC1CCCc2ccccc21)c1ccco1 (stereo not drawn) | inconclusive [inhibitor, single point]
CCOC(=O)c1c(/N=C/c2cc([N+](=O)[O-])ccc2O)sc(C)c1C | inconclusive [inhibitor, single point]
CCCNC(=O)NC(=O)CSc1nc2ccccc2n1CC(C)C | inactive
CCOC(=O)c1ccccc1NC(=O)CSc1nc2ccccc2c(=O)[nH]1 | inactive
CCOC(=O)C(CSCC(=O)c1ccc(Cl)cc1Cl)NC(=O)OC(C)(C)C (stereo not drawn) | inconclusive [inhibitor, single point]
Cc1ccc2c(C)nc(Nc3nc(CSc4nc5ccccc5[nH]4)cc(=O)[nH]3)nc2c1 | active: 5.62 µM
COc1cc(/C=N/NC(=S)Nc2cccnc2)cc(OC)c1O | inconclusive [inhibitor, single point]
COc1cc(/C=N/N=C2/NC(=O)C(Cc3ccc(F)cc3)S2)ccc1O (stereo not drawn) | inconclusive [inhibitor, single point]
COc1ccc(-c2nnc(SCC(=O)Nc3cc(C)on3)o2)cc1 | inconclusive [inhibitor, single point]
C=CCn1c(=O)c2ccccc2n2c(SCc3nc4ccccc4s3)nnc12 | inactive
Nc1c(Cl)ncnc1N/N=C/c1ccc(O)cc1 | active: 12.6 µM

Structure (SMILES) | Potency
COC(=O)c1[nH]c2ccccc2c1NC(=O)CN1CCN(c2cccc(Cl)c2)CC1 | inconclusive [inhibitor, single point]
Cc1cccc(C)c1OC(=O)CSc1nnc(-c2ccccc2)o1 | inconclusive [inhibitor, single point]
CC1Sc2ccc(S(=O)(=O)N3CCC(C(=O)NCC(C)c4ccccc4)CC3)cc2NC1=O (stereo not drawn) | inconclusive [inhibitor, single point]
O=C(N/N=C/c1ccc[nH]1)c1ccccc1OCc1ccc(F)cc1 | inactive
CCOC(=O)c1cc(C#N)c(SC)nc1C | inactive
Cc1cccc(-n2c(-c3ccccc3)c[nH]c2=S)c1C | active: 7.08 µM
O=C(CN1C(=O)C2C3C=CC(C3)C2C1=O)Nc1ccc(S(=O)(=O)N2CCCCC2)cc1 (stereo not drawn) | inconclusive [activator, single point]
Cc1cccc(N=C2NC(=O)/C(=C/c3cccs3)S2)c1 | active: 12.6 µM
COc1ccc(C(=O)NNC(=O)CSc2nnnn2-c2cc(OC)cc(OC)c2)cc1 | inconclusive [activator, single point]
Cc1nnc(NC(=O)Nc2ccc(Cl)c(Cl)c2)s1 | inactive
COc1ccc(N2CCN(C(=O)C3Cc4ccccc4CN3C(=O)c3ccccc3)CC2)cc1 (stereo not drawn) | inconclusive [activator, single point]
CC(C)(CC(=O)O)CC(=O)Nc1ccc(Cl)c(Cl)c1 | inconclusive [activator, single point]
O=C(c1ccc(S(=O)(=O)Cc2ccccc2Cl)c([N+](=O)[O-])c1)N1CCN(c2ccccn2)CC1 | inconclusive [activator, single point]
FC(F)(F)c1cc(CCN2C(=S)NC[C@@H]2CC2CCCCC2)cc(C(F)(F)F)c1 | active: 6.31 µM
CC(C)=CC(=O)OCC(=O)Nc1nc(C)c(Cl)cc1Cl | inactive
O=[N+]([O-])c1cc(Br)cc(C=Nc2ccc3c(c2)OCO3)c1O | inconclusive [inhibitor, single point]
Cc1cccc(CN2CCCC(C(=O)c3ccc4c5c(cccc35)CC4)C2)n1 (stereo not drawn) | active: 12.6 µM
O=C(CSc1nc(O)c(C2CCCCC2)c(=O)[nH]1)Nc1ccc(F)cc1 | inactive
O=C(Nc1nnc(-c2ccco2)o1)c1ccc(Cl)s1 | active: 0.631 µM
Cc1cccc(C)c1N=C1NN=C(c2ccccc2F)CS1 | active: 10 µM
Cc1csc(NC(=O)/C=C/c2ccc3c(c2)OCO3)n1 | inconclusive [inhibitor, single point]
O=[N+]([O-])c1ccccc1/C=N/n1c(C2CCCCC2)n[nH]c1=S | active: 35.5 µM
Cc1nnc(NNS(=O)(=O)c2ccc(Cl)cc2)[nH]c1=O | inactive
Cc1ccsc1CN(C)C(=O)C1CCC(=O)N(CCc2cccc(F)c2)C1 (stereo not drawn) | inconclusive [inhibitor, single point]
